The list shows a part of the results. Many values rest on one well or one pass, so single values are uncertain.
Experiments:
Assay in all cases: cell count relative to DMSO control; melanoma cells; higher = more viable cells
Conditions in all cases: library dose: low library concentration; 72 h
WM115 = test system: WM115
WM1716 = test system: WM1716
WM1745 = test system: WM1745
WM3526 = test system: WM3526
WM3619 = test system: WM3619
WM451Lu = test system: WM451Lu
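Also: cell number obtained by counting DAPI-stained nuclei in high-throughput microscope images with image analysis software, screen run in 1,536-well plates.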

`Cc1cc(Nc2cc(N3CCN(C)CC3)nc(/C=C/c3ccccc3)n2)n[nH]1` + NC(=O)Nc1cc(-c2cccc(F)c2)sc1C(=O)N[C@H]1CCCNC1 [AZD7762] (first compound 0.04 µM, partner dose 0.02 µM) was tested, and the cell count (WM115) was 89.8%, the cell count (WM1716) was 101% and the cell count (WM1745) was 93.7%. It also gave a cell count (WM3526) of 87.2%, a cell count (WM3619) of 61.2% and a cell count (WM451Lu) of 87.7%.

Compound `Cc1cn(-c2cc(NC(=O)c3ccc(C)c(Nc4nccc(-c5cccnc5)n4)c3)cc(C(F)(F)F)c2)cn1` [nilotinib] + Cc1cc(Nc2cc(N3CCN(C)CC3)nc(/C=C/c3ccccc3)n2)n[nH]1 [ENMD2076] (first compound 0.2 µM, partner dose 0.04 µM) has a cell count (WM115) of 95.3%, a cell count (WM1716) of 87.9% and a cell count (WM1745) of 84.1%. For the same compound, the cell count (WM3526) was 113%, the cell count (WM3619) was 113% and the cell count (WM451Lu) was 83.6%.

Work on `COc1ccc(C2=N[C@@H](c3ccc(Cl)cc3)[C@@H](c3ccc(Cl)cc3)N2C(=O)N2CCNC(=O)C2)c(OC(C)C)c1` [Nutlin-3] + Cn1cncc1[C@@](N)(c1ccc(Cl)cc1)c1ccc2c(c1)c(-c1cccc(Cl)c1)cc(=O)n2C [tipifarnib] (first compound 0.1 µM, partner dose 0.01 µM) yielded a cell count (WM115) of 82%, a cell count (WM1716) of 71.5% and a cell count (WM1745) of 98%. The cell count (WM3526) was 90.7%, the cell count (WM3619) was 116% and the cell count (WM451Lu) was 100%.

With `CC(C)C[C@H](NC(=O)[C@H](Cc1ccccc1)NC(=O)c1cnccn1)B(O)O` [Bortezomib] + N#Cc1c(O)c2c(-c3ccc(-c4ccccc4O)cc3)csc2[nH]c1=O [A769662] (first compound 0.001 µM, partner dose 2 µM) the cell count (WM115) was 103%, the cell count (WM1716) was 25% and the cell count (WM1745) was 56.6%. It also gave a cell count (WM3526) of 86.8%, a cell count (WM3619) of 30.2% and a cell count (WM451Lu) of 84.3%.

For `Cc1cn(-c2cc(NC(=O)c3ccc(C)c(Nc4nccc(-c5cccnc5)n4)c3)cc(C(F)(F)F)c2)cn1` [nilotinib] + Cn1c(Nc2ccc(C(F)(F)F)cc2)nc2cc(Oc3ccnc(-c4ncc(C(F)(F)F)[nH]4)c3)ccc21 [CHIR265] (first compound 0.2 µM, partner dose 0.08 µM), the cell count (WM115) was 66.3%, the cell count (WM1716) was 101% and the cell count (WM1745) was 67.5%. For the same compound, the cell count (WM3526) was 61.4%, the cell count (WM3619) was 78.7% and the cell count (WM451Lu) was 99.5%.

With `Cc1cc(Nc2cc(N3CCN(C)CC3)nc(/C=C/c3ccccc3)n2)n[nH]1` + CN(C)S(=O)(=O)c1ccc2c(c1)/C(=C/c1cc3c([nH]1)CCCC3)C(=O)N2 [SU6656] (first compound 0.04 µM, partner dose 0.4 µM) the cell count (WM115) was 64.1%, the cell count (WM1716) was 113% and the cell count (WM1745) was 89.2%. For the same compound, the cell count (WM3526) was 86.2%, the cell count (WM3619) was 80.2% and the cell count (WM451Lu) was 128%.

`Cc1cc(Nc2cc(N3CCN(C)CC3)nc(/C=C/c3ccccc3)n2)n[nH]1` + Cc1cc(N2CCOCC2)cc2[nH]c(-c3c(NC[C@@H](O)c4cccc(Cl)c4)cc[nH]c3=O)nc12 [BMS536924] (first compound 0.04 µM, partner dose 0.2 µM) showed a cell count (WM115) of 102%, a cell count (WM1716) of 98.6% and a cell count (WM1745) of 60.8%. For the same compound, the cell count (WM3526) was 89.6%, the cell count (WM3619) was 97.1% and the cell count (WM451Lu) was 105%.

In the case of `CC(C)C[C@H](NC(=O)[C@H](Cc1ccccc1)NC(=O)c1cnccn1)B(O)O` [Bortezomib] + COC(=O)c1sccc1S(=O)(=O)Nc1ccc(Nc2ccccc2)cc1OC [GSK0660] (first compound 0.001 µM, partner dose 1 µM), the cell count (WM115) is reported as 94.6%, the cell count (WM1716) is reported as 28.9% and the cell count (WM1745) is reported as 54.3%. For the same compound, the cell count (WM3526) was 66.3%, the cell count (WM3619) was 6.34% and the cell count (WM451Lu) was 97.2%.

In the case of `Cc1cn(-c2cc(NC(=O)c3ccc(C)c(Nc4nccc(-c5cccnc5)n4)c3)cc(C(F)(F)F)c2)cn1` [nilotinib] + CC(C)(C)c1cnc(CSc2cnc(NC(=O)C3CCNCC3)s2)o1 [SNS-032] (first compound 0.2 µM, partner dose 0.01 µM), the cell count (WM115) is reported as 108%, the cell count (WM1716) is reported as 93.9% and the cell count (WM1745) is reported as 95.8%. The cell count (WM3526) was 93.8%, the cell count (WM3619) was 91.2% and the cell count (WM451Lu) was 109%.

In the case of `Cc1cc(Nc2cc(N3CCN(C)CC3)nc(/C=C/c3ccccc3)n2)n[nH]1` + C[C@]1(c2nc3c(C(N)=O)cccc3[nH]2)CCCN1 [Veliparib] (first compound 0.04 µM, partner dose 1.4 µM), the cell count (WM115) is reported as 97.1%, the cell count (WM1716) is reported as 92% and the cell count (WM1745) is reported as 108%. For the same compound, the cell count (WM3526) was 101%, the cell count (WM3619) was 123% and the cell count (WM451Lu) was 114%.

Work on `COc1ccc(C2=N[C@@H](c3ccc(Cl)cc3)[C@@H](c3ccc(Cl)cc3)N2C(=O)N2CCNC(=O)C2)c(OC(C)C)c1` [Nutlin-3] + CCCCCCCCc1ccc(CCC(N)(CO)CO)cc1 [fingolimod] (first compound 0.1 µM, partner dose 2 µM) yielded a cell count (WM115) of 91.7%, a cell count (WM1716) of 75.4% and a cell count (WM1745) of 79.7%. The cell count (WM3526) was 84.2%, the cell count (WM3619) was 84.3% and the cell count (WM451Lu) was 130%.

Reference: the supplement of paper PMC4604168 (melanoma cell lines)
